{"source": "paper PMC6345968", "about": "“Structural basis for species-selective targeting of Hsp90 in a pathogenic fungus” (Nature Communications, 2019)", "key": {"[1]": {"system": "293T cells expressing luciferase", "experiment": "384-well co-culture with fluconazole, human cell survival by luminescence"}, "[2]": {"system": "GFP-marked C. albicans CaCi-2", "experiment": "384-well co-culture with fluconazole, fungal burden by GFP fluorescence", "details": "Candida albicans, read-out: concentration for 50% reduction in the fungal burden"}, "[3]": {"system": "HEPG2 cells", "experiment": "Mammalian cell toxicity, resazurin dye reduction", "type": "cell-based, human", "details": "3-day culture"}, "[4]": {"system": "C. albicans CaCi-2", "experiment": "Checkerboard with fluconazole, Bliss independence", "type": "cell-based, Candida albicans", "details": "48 hours", "description": "Each colored box represents the mean of duplicate determinations. […] Error bars, SD.\n(§1) Antifungal tolerance and resistance were determined in flat bottom, 96-well microtiter plates using a modified broth microdilution protocol as described[8],[10]. All Hsp90 inhibitors were formulated in dimethyl sulfoxide (DMSO, Sigma Aldrich Co.); fluconazole was dissolved in sterile ddH2O. Each strain was tested in duplicate on at least two occasions. […] To test for fungicidal activity, cultures from MIC plates were spotted on YPD agar plates using a spotter (Frogger, V&P Scientific, Inc). Plates were photographed after 48 h of incubations at 30 °C."}, "[5]": {"system": "IL-1β secretion by Raw264.7 cells", "experiment": "Cytokine production ELISA after C. albicans infection", "type": "cell-based, mouse", "details": "2 h pre-treatment, LPS primed", "description": "(§2) After 2 h incubation at 37 °C, medium was flipped off and wells washed two times with 200 μL of warm medium. During incubation of macrophages with Hsp90 inhibitor, a culture of C. albicans grown in YPD overnight at 30 °C was spun down and washed twice with PBS. Cell counts were then determined using a hemocytometer and an inoculum of 6 × 10^5 cells per well was added to the macrophages. Co-culture incubation time was 2 h for measuring secretion of TNF-α and 5 h for measuring IL-1β cytokine levels. To monitor IL-1β production, macrophages were primed with 50 ng/mL of LPS (Sigma; L2630) for 2 h prior to infection with C. albicans. At the end of each experiment 150 mL of media was removed and added to a new 96-well plate that contained a 25 µL of solution of 7× protease inhibitors in water. The plate was frozen and stored at −80 °C until measurement of cytokine levels using ELISA kits from R&D Systems: TNF-α DuoSet (DY410) and IL1-1β/IL-1F2 DuoSet (DY401)."}, "[6]": {"system": "TNF-α secretion by Raw264.7 cells", "experiment": "Cytokine production ELISA after C. albicans infection", "type": "cell-based, mouse", "details": "2 h pre-treatment", "description": "as §2"}, "[7]": {"system": "Raw264.7 cells", "experiment": "Mammalian cell toxicity, resazurin dye reduction", "type": "cell-based, mouse", "details": "3-day culture"}, "[8]": {"experiment": "Single dose plasma pharmacokinetics", "type": "in vivo, mouse", "details": "mice, 40 mg/kg subcutaneous"}, "[9]": {"system": "S. cerevisiae expressing C. albicans Hsp90 Lys158Ser/Thr162Arg", "experiment": "Broth microdilution growth inhibition, Hsp90 variant yeast", "type": "cell-based, Saccharomyces cerevisiae", "text": "(§3) We tested their importance by generating three C. albicans Hsp90 variants with the native fungal residues changed to their corresponding human residues (Fig. 5a, b). The first variant was a single substitution, replacing fungal threonine with human glutamine at position 12 (Thr12Gln) located between the N-terminal β-strand and α-helix. […] The second variant involved two amino acid changes within α-helix 7 (Leu130Ala and Phe131Tyr) which were predicted to impact contact with the para-methoxybenzyl substituent.\nas §1"}, "[10]": {"system": "S. cerevisiae expressing C. albicans Hsp90 Leu130Ala/Phe131Tyr", "experiment": "Broth microdilution growth inhibition, Hsp90 variant yeast", "type": "cell-based, Saccharomyces cerevisiae", "text": "as §3, §1"}, "[11]": {"system": "S. cerevisiae expressing C. albicans Hsp90 Thr12Gln", "experiment": "Broth microdilution growth inhibition, Hsp90 variant yeast", "type": "cell-based, Saccharomyces cerevisiae", "text": "as §3, §1"}, "[12]": {"system": "C. albicans SN95", "experiment": "Growth inhibition in culture", "type": "cell-based, Candida albicans", "details": "48-hour exposure", "text": "(§4) We began by measuring inhibition of C. albicans growth in culture.\n(§5) Each colored box represents the mean of duplicate determinations. Color scale for relative growth is provided to far right of panel, green: no inhibition to black: complete inhibition. […] Cultures were then fixed and stained by Periodic Acid-Schiff (PAS) technique to visualize fungal burden (dark red/purple signal) and underlying human cells (light pink signal). Representative fields from conventional light photomicrographs are presented at the same magnification in all panels. The experiment was repeated in two independent biological replicates to confirm results. Scale bar, 100 μm\nas §1"}, "[13]": {"system": "C. albicans clinical isolate CaCi-2", "experiment": "Growth inhibition in culture", "type": "cell-based, Candida albicans", "details": "48-hour exposure", "text": "as §4, §5, §1"}, "[14]": {"system": "C. albicans SN95", "experiment": "Checkerboard with fluconazole then spotting on drug-free agar (fungicidal activity)", "type": "cell-based, Candida albicans", "details": "48 h liquid culture, then drug-free solid medium", "description": "as §1"}, "[15]": {"system": "3T3 cells", "experiment": "Mammalian cell toxicity, resazurin dye reduction", "details": "3-day culture"}, "[16]": {"system": "S. cerevisiae expressing human Hsp90β", "type": "cell-based, Saccharomyces cerevisiae", "details": "isogenic strains", "text": "(§6) A critical consideration in the development of an effective antifungal is not just target binding, but also access to the target across microbial cell membranes and cell walls. Therefore, we evaluated the potency and selectivity of oxime analogs using drug susceptibility assays. We used strains of S. cerevisiae where both endogenous genes encoding isoforms of Hsp90 have been disrupted and growth is solely dependent upon C. albicans or human Hsp90 isoforms.\nas §1"}, "[17]": {"system": "S. cerevisiae expressing human Hsp90α", "type": "cell-based, Saccharomyces cerevisiae", "details": "isogenic strains", "text": "as §6, §1"}}, "note": "pEC50: −log10 of the molar value.", "data": [{"compound": "COc1ccc(CON=C2C=CC=CC3OC3CC(C)OC(=O)c3c(O)cc(O)cc3C2)cc1", "note": "(stereo not shown) [CMLD013075]", "values": [{"measurement": "reduction of human cell survival", "setting": "[1]; at 1 uM, reviewer's reading of Fig. 8b", "value": 50, "unit": "%"}, {"measurement": "toxicity to human cells in co-culture", "setting": "[1]; with FL, 48 h", "value": "much less toxic than radicicol or ganetespib"}, {"measurement": "pEC50", "setting": "[2]", "value": "~6.00"}, {"measurement": "toxicity relative to ganetespib (less toxic)", "setting": "[3]", "value": "> 50", "unit": "fold"}, {"measurement": "toxicity relative to radicicol (less toxic)", "setting": "[3]", "value": "> 10", "unit": "fold"}, {"measurement": "Bliss synergy δ with fluconazole", "setting": "[4]", "value": 13.0}, {"measurement": "suppression of IL-1β production", "setting": "[5]", "value": "far less suppression than radicicol"}, {"measurement": "suppression of TNF-α production", "setting": "[6]", "value": "far less suppression than radicicol"}, {"measurement": "toxicity relative to radicicol or ganetespib", "setting": "[7]", "value": "much less toxic than radicicol or ganetespib"}, {"measurement": "clearance from the systemic circulation", "setting": "[8]", "value": "relatively rapid clearance from the systemic circulation"}, {"measurement": "change of potency relative to wild-type C. albicans Hsp90", "setting": "[9]", "value": "did not alter the potency"}, {"measurement": "change of potency relative to wild-type C. albicans Hsp90", "setting": "[10]", "value": "decreasing potency"}, {"measurement": "change of potency relative to wild-type C. albicans Hsp90", "setting": "[11]", "value": "did not alter the potency"}, {"measurement": "single-agent growth inhibition", "setting": "[12]", "value": "comparable single-agent activity"}, {"measurement": "single-agent growth inhibition", "setting": "[13]", "value": "comparable single-agent activity"}, {"measurement": "fungicidal activity in combination with FL", "setting": "[14]", "value": "transformed the fungistatic azole into a fungicidal combination"}, {"measurement": "cytotoxicity to 3T3 relative to HEPG2 (less cytotoxic)", "setting": "[15]", "value": "at least 10 fold"}, {"measurement": "activity compared with strain expressing C. albicans Hsp90", "setting": "[16]", "value": "more active against a yeast strain engineered to express C. albicans Hsp90"}, {"measurement": "activity compared with strain expressing C. albicans Hsp90", "setting": "[17]", "value": "more active against a yeast strain engineered to express C. albicans Hsp90"}]}]}
